Experimental data published in PMC6919601, “Identification of Plasmodium dipeptidyl aminopeptidase allosteric inhibitors by high throughput screening” (PLoS ONE, 2019).
About 230 (0.21%) of roughly 110,000 compounds showed an effect of 50% or more. Some of the results follow.

Molecular target: DPAP1 (Plasmodium falciparum, UniProt Q8IIJ9)
Experiment: primary screen, percent inhibition; read by cleavage of a fluorogenic dipeptide substrate; higher = more effect of the substance
Parameters: species or system P. falciparum D10 trophozoite lysates; single well
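Further: 30 min substrate incubation versus DMSO and 10 µM JCP410 controls.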

Sequence of DPAP1 (Q8IIJ9 whole entry, looked up): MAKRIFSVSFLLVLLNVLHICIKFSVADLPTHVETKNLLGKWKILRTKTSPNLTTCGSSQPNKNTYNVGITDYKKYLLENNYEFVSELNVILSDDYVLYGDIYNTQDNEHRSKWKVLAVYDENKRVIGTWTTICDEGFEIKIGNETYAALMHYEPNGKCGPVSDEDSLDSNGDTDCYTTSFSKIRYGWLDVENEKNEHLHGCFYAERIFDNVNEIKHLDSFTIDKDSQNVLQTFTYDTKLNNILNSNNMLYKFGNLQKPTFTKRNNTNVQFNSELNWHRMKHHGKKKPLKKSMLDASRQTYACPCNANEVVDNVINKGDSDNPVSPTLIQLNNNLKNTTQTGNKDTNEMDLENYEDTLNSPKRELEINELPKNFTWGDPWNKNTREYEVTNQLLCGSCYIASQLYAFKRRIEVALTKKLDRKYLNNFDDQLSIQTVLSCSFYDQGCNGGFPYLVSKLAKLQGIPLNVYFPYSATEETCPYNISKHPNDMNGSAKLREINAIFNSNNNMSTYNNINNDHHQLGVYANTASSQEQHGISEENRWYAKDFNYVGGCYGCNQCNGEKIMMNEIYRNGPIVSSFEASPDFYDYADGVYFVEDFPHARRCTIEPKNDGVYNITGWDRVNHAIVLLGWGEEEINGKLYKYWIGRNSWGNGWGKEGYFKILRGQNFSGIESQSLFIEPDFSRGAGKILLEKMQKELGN

Row | SMILES | % Inhibition @ 10 uM [%]
1 | O=S(=O)(CCc1ccncc1)c1ccccc1 | 1.9
2 | C=CC1CN2CCC1CC2[C@H](O)c1ccnc2ccc(O)cc12 (stereo partly shown) | -7.01
3 | COc1ccc(-c2noc(CCC(=O)NC(C)(C)C)n2)cc1OC | -1.35
4 | Cc1cc(C)c(C)c(OCC(=O)NCc2ccccn2)c1 | -2.98
5 | COc1ccccc1C(=O)N(Cc1sccc1C)C1CCS(=O)(=O)C1 (stereo not shown) | 3.77
6 | CC(=O)NCCNC(=O)c1ccc2ccccc2c1 | 5.01
7 | CCN1CCC(N(Cc2ccc(F)cc2)C(=O)NC23CC4CC(CC(C4)C2)C3)CC1 | 0.434
8 | CCC(=O)/N=C1\SC2CS(=O)(=O)CC2N1CCc1ccccc1 (stereo not shown) | -1.15
9 | O=C(c1ccccc1)N1CCCC(c2nc(O)c3nnn(Cc4ccc(Cl)cc4)c3n2)C1 (stereo not shown) | 2.73
10 | NC(=O)/C=C/C(=O)NCc1ccccc1 | -4.35
11 | Cc1c(C(=O)N(C)C)sc2c1c(=O)n(Cc1ccccc1)c(=O)n2Cc1ccc(F)cc1 | 1.91
12 | O=C(NCc1cccnc1)c1ccc2c(c1)C(=O)N(Cc1cccnc1)C2=O | -1.82
13 | COc1ccc(C(=N)NOC(=O)c2c(OC)cccc2OC)cc1 | -4.93
14 | Cc1ccc(C)c(Cn2c(C(C)O)nc3ccccc32)c1 (stereo not shown) | 2.92
15 | CC(NC(=O)Cn1ncn2c(cc3sccc32)c1=O)c1ccccc1 (stereo not shown) | 1.8
16 | COc1ccc(C2OC34CCCCC3C(C#N)(C#N)C2(C#N)C(=N)O4)cc1 (stereo not shown) | 0.503
17 | CC(=O)Nc1ccc(NC(=O)/C=C/c2cccc([N+](=O)[O-])c2)cc1 | -1.92
18 | CC1CCCC(C)N1CCCCn1c2ccccc2c2ccccc21 (stereo not shown) | 1.87
19 | CCOc1ccccc1C1C2=C(O)CC(C)(C)CC2=Nc2ncnn21 (stereo not shown) | -1.62
20 | CN(C)c1ccc(/C=C(\C#N)c2nc(-c3cc4c(ccc5ccccc54)oc3=O)cs2)cc1 | -10.1
21 | Cc1n[nH]c(C)c1CCCOc1ccccc1C(C)(C)C | -3.42
22 | Cc1cc(C)c(S(=O)(=O)NCC2CCC(C(=O)N3CCN(c4ccccn4)CC3)CC2)c(C)c1 (stereo not shown) | 2.35
23 | COc1ccc(OC)c(CCNC(=O)c2cc3oc4ccccc4c3n2C)c1 | 1.22
24 | SC1=NC2=C(CCC2)C(c2ccccc2)N1 (stereo not shown) | -4.75
25 | CN(C)C(=O)Nc1ccc(S(N)(=O)=O)cc1 | -2.12

Row | SMILES | % Inhibition @ 10 uM [%]
26 | COCc1cc(O)n2nc(C(F)(F)F)nc2n1 | -4.78
27 | O=C(Nc1ccc2nccnc2c1)N1CCCCC1 | 0.51
28 | Clc1ccc(CNCCc2ccc3c(c2)OCO3)cc1 | 2.23
29 | CCCn1c(NCc2ccc(Cl)cc2)nc2ccccc21 | -0.828
30 | CC(C)C(NC(=O)c1ccc(C23CC4CC(CC(C4)C2)C3)cc1)C(=O)Nc1ccccn1 (stereo not shown) | 3.34
31 | CCOC(=O)c1c(C)c(C(=O)NCc2ccc3c(c2)OCO3)c(C)n1Cc1ccccc1 | 0.0579
32 | Cc1ccccc1CN(C)CCc1ccccn1 | 2.1
33 | Cc1ccccc1CNC(=O)Cn1cnc(S(=O)(=O)N2CCCC2)c1 | 0.0575
34 | Cc1ccc2oc3c(c(=O)c2c1)C(c1cccc(O)c1)N(c1ccccn1)C3=O (stereo not shown) | 8.3
35 | CN(CC(=O)N1CCC(C(N)=O)CC1)S(=O)(=O)c1ccc(F)cc1 | 4.44
36 | O=C(Cc1ccccc1)Nc1ccc(S(=O)(=O)Nc2cccc(Cl)c2Cl)cc1 | -4.35
37 | COc1ccc(/C=c2\oc3cccc4c(OC)ccc(c2=O)c34)cc1OC | -3.78
38 | Cc1cccc(OCC(=O)Nc2ccc(CN3CCOCC3)cc2)c1 | 0.189
39 | CC1=C(C(=O)Nc2cccc(C)n2)C(c2ccc(Cl)cc2Cl)C2=C(O)CC(C)(C)CC2=N1 (stereo not shown) | -4.48
40 | CCCN(CCC)C(=O)Cn1c(SCc2ccccc2F)nc2ccncc21 | -6.24
41 | COc1cc(C2=NOC(C(=O)Nc3cccnc3Cl)C2)cc(OC)c1OC (stereo not shown) | -2.16
42 | CC(O)c1cccc(NC(=O)c2nn3c(c2Cl)NC(c2cccs2)CC3C(F)(F)F)c1 (stereo not shown) | 1.02
43 | CC1=C(C(=O)Nc2ccc(Br)cn2)C(c2ccc(C)cc2)C2=C(O)CCCC2=N1 (stereo not shown) | -2.8
44 | N#Cc1c2n(c3c(=O)n(Cc4ccccc4Cl)cnc13)CCCC2 | -0.996
45 | COC(=O)c1c(NC(=O)c2cc(F)cc(F)c2)sc2c1CCC2 | 1.43
46 | COC(=O)C1=C(C)N(Cc2ccco2)C(=O)/C1=C\c1ccc2c(c1)OCO2 | 0.131
47 | CCC(Cc1ccccc1)NS(=O)(=O)c1cc(Br)cnc1N (stereo not shown) | 0.655
48 | NS(=O)(=O)c1ccc(CCNc2ncnc3[nH]cnc23)cc1 | 0.221
49 | O=Cc1cccn1-c1sc2c(c1C(=O)O)CCCC2 | -4.11
50 | COc1cc(-c2nnc(SCC(=O)NC3CCCCC3)o2)cc(OC)c1OC | 11

Row | SMILES | % Inhibition @ 10 uM [%]
51 | COc1ccc(C(=O)N2CCN(Cc3ccccc3C(F)(F)F)CC2)cc1OC | 0.964
52 | C=Cc1ccc(Cn2c(C(=O)O)c(CNC3CCN(Cc4ccccc4)CC3)c3ccccc32)cc1 | 9.46
53 | CN1CCC(NC(c2ccccc2)c2ccc(Cl)cc2)CC1 (stereo not shown) | 1.57
54 | CCOc1ccc(CNC(=O)c2ccc(CS(=O)Cc3ccc(C)cc3)o2)cc1 (stereo not shown) | -6.67
55 | CCS(=O)(=O)N1CCC2(CC1)OC(=O)C(C)=C2C(=O)N1CCc2ccccc2C1 | 4.39
56 | O=[N+]([O-])c1ccc(CSc2nc3ccccc3s2)cc1 | -0.0369
57 | CCCc1ccc(OCc2ccc(C(=O)N3CCSCC3)o2)cc1 | 2.1
58 | CCc1nn(CC(=O)NCCN2CCOCC2)c(=O)c2cc3sccc3n12 | -3.35
59 | N#C/C(=C\C=C\c1ccccc1)C(=O)NCc1cccnc1 | 10.8
60 | COC(=O)c1cc(S(=O)(=O)N(Cc2ccccc2)C(C)C)c[nH]1 | -6.25
61 | O=C(Nc1cccs1)Nc1cccnc1Cl | -4.71
62 | CC1CCN(C(=O)CSc2nnc(Cc3ccccc3)o2)CC1 | -0.999
63 | Cc1ccnc(Nc2nc(-c3sc(NC(=O)c4ccccc4)nc3C)cs2)c1 | -9.24
64 | CNS(=O)(=O)c1ccc(OC)c(OC)c1 | 2.57
65 | CCOC(=O)c1cc(-c2ccc(-c3ccccc3)cc2)nc2ccccc12 | -4.91
66 | CCCCC1COC(c2cccn2Cc2ccc(F)cc2)=N1 (stereo not shown) | 0.163
67 | COCc1[nH]nc2c1C(c1ccccc1OC)C(C#N)=C(N)O2 (stereo not shown) | 4.86
68 | Cc1ccc(OCC(=O)Nc2cccc(C#N)c2)c(Br)c1 | -4.14
69 | CC1CCN(C(=O)C2CCN(C(=O)c3cc4sccc4n3Cc3ccc(F)cc3)CC2)CC1 | 3.4
70 | CC(C)(C)C(=O)/C=C(\NCc1ccccc1)C(=O)NCc1ccccc1 | 2.18
71 | COc1ccc2c(c1)nc(SCc1ccc(Cl)cc1)n2C | 6.47
72 | Nc1no[n+]([O-])c1C(=O)NCCc1c[nH]c2ccccc12 | 1.76
73 | Cc1coc2c1c(C)cc1oc(=O)c(CC(=O)O)c(C)c12 | -1.15
74 | Cc1[nH]c2ccc(C(=O)NCCCN3CCC(Cc4ccccc4)CC3)cc2c1C | 1.95
75 | O=C(O)c1c(CNC2CCCc3ccccc32)c2ccccc2n1Cc1cccc(Cl)c1 (stereo not shown) | 3.54

Row | SMILES | % Inhibition @ 10 uM [%]
76 | CCOc1cc(C)nc(-c2ccccc2O)n1 | -3.26
77 | CCc1ccc(CNC(=O)Cn2ncc3c4cc(C)ccc4nc-3c2O)cc1 | 0.708
78 | CC(C)C[C@H](NC(=O)c1ccc(-c2ccccc2F)nc1)C(=O)NCC#N | -0.207
79 | CCOc1ccc(NC(=O)CC2S/C(=N\c3ccc(Br)cc3)N(C)C2=O)cc1 (stereo not shown) | -0.545
80 | CCCCN(C)C(=O)C1c2ccccc2C(=O)N2CCc3ccccc3C12 (stereo not shown) | -5.09
81 | O=S(=O)(c1cccc(S(=O)(=O)N2CCOCC2)c1)c1cccc(S(=O)(=O)N2CCOCC2)c1 | 9.22
82 | Cc1ccc(C2=NC(=O)/C(=C/c3ccsc3)S2)cc1 | 0.993
83 | O=C1c2cccnc2C(=O)N1Cc1ccc(S(=O)(=O)N2CC=C(c3ccccc3)CC2)s1 | -2.19
84 | COc1ccc(-c2cc3c(=O)n(CC(=O)N4CCC5(CC4)OCCO5)ncn3n2)cc1 | -6.58
85 | COc1ccc(C(=O)N2CC(=O)N(CCc3ccccc3)C(=O)C2)cc1OC | 2.8
86 | Cc1ccc(C(=O)Nc2nc3ccc(Cl)cc3s2)o1 | -5.13
87 | CCOc1ccc2nc(NC(=O)c3nc(SCC)ncc3Cl)sc2c1 | 2.19
88 | CC(Cc1c[nH]c2ccccc12)NC(=O)NC(=O)c1ccc(Cl)cc1 (stereo not shown) | -1.76
89 | COc1cc(/C=C2\SC(=N)N(c3ccc(Br)cc3)C2=O)ccc1OC(C)C(=O)O (stereo not shown) | 2.95
90 | Cc1cc(C)c(S(=O)(=O)Nc2ccccc2-c2ccccc2)c(C)c1 | 5.06
91 | COc1ccc(CN2CCN(Cc3ccc(SC)cc3)CC2)cc1OC | 6.29
92 | CCC(C)c1ccc(NS(=O)(=O)c2ccc(Cl)cc2)cc1 (stereo not shown) | -4.91
93 | CC1CCCCN1Cc1coc2c(Cl)cc(Cl)cc2c1=O (stereo not shown) | -1.64
94 | CN1C(=O)CCC1(O)c1ccccc1 (stereo not shown) | -7.93
95 | C=CCn1c(SCC(=O)N2CCOCC2)nc2sc(-c3ccccc3)cc2c1=O | -4.48
96 | O=C(NCc1cccnc1)c1ccc2nc(-c3ccccc3)c(-c3ccccc3)nc2c1 | -2.9
97 | CN1CCN(c2ncnc3sc4c(c23)CCCC4)CC1 | -1.29
98 | CN1CCN(C(=O)c2c(NC(=O)c3ccccc3)sc3c2CCCC3)CC1 | 14.3
99 | CCN1CCN(S(=O)(=O)/C=C/c2ccccc2)CC1 | 3.96
100 | COc1ccccc1N1C(=O)C2C(c3ccccc3)C=CC(c3ccccc3)C2C1=O (stereo not shown) | 0.716
